Experimental data: PubChem BioAssay AID1240 (Sanford-Burnham Center for Chemical Genomics, 2008)
About 800 (1.6%) of roughly 50,000 compounds showed an effect of 50% or more. The list shows a part of the results.

These molecules were tested against Bcl-2-like protein 10 (Homo sapiens) (UniProt Q9HD36) (assay: TR3 peptide-Bcl-B binding displacers, biochemical primary FP assay, phenotype converters (AID 1240;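 also: 0% = Bcl-B with tracer peptide and DMSO and 100% = tracer peptide lacking Bcl-B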)). Conditions: GST-Bcl-B / FITC-TR3 peptide fluorescence polarization; stronger effect = higher value; compound at 3.75 mg/L.
Chain of UniProt Q9HD36 (Q9HD36 whole entry, looked up): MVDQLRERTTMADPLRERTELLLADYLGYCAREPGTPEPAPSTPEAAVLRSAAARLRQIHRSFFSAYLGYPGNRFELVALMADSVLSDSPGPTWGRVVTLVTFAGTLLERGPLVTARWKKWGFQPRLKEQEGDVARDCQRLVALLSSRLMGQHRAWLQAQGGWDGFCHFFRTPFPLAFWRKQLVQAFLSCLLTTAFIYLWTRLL

Point of comparison: `O=C(Nc1ccccc1C(=O)Nc1ccccc1Cl)c1ccco1`, displacement -4.4%. Against it:
- COc1ccc(Cl)cc1C(=O)Nc1cccc(S(N)(=O)=O)c1 — higher, 15.7%
- COc1ccccc1N1CCN(C(=O)COc2ccc(C)cc2C)CC1 — higher, 6.6%
- CC(=O)Oc1ccc(NC(=O)CC2Sc3ccccc3NC2=O)cc1 (centres undefined) — the same, -4.4%
- COc1ccc(C2Nc3ccccc3C(=O)N2Cc2ccccc2)cc1Cn1nc(C)c(Cl)c1C (centres undefined) — higher, 14%
- CCOC(=O)c1conc1-c1ccc(Br)cc1 — higher, 15.9%
- O=C(Nc1ccccc1C(=O)Nc1ccc(O)cc1)c1ccccc1 — higher, 17.4%
- CC1(C)CC(CC(=O)O)(Cc2ccccc2)CCO1 (centres undefined) — higher, 8.5%
- COc1cc(/C=N/c2oc(C)c(C)c2C#N)ccc1O — higher, 16.3%
- C=CCc1c(C)nc(-c2ccccc2)nc1Nc1ccc(C(=O)O)cc1 — higher, -3.3%
- CCOc1cc(/C=C2\C(=O)N(c3ccc(S(N)(=O)=O)cc3)N=C2C)ccc1O — higher, 14.6%
- O=C(CC(c1ccccc1)c1ccccc1)Nc1ccc(Cl)cn1 — higher, 12.7%
- COc1cc(C=O)cc(Br)c1OCc1ccccc1Cl — higher, 10.5%
- O=C(CSC1=NCCS1)NCc1ccco1 — higher, 11%
- Cc1cccc(C)c1OCC(=O)Nc1nccs1 — higher, 4.7%
- O=C(c1ccc(N2CCN(C(=O)c3ccc(F)c(F)c3)CC2)cc1)c1cccc(F)c1 — lower, -9.2%
- O=C(Nc1ccc2ccc3cccc4ccc1c2c34)c1ccccc1 — higher, 13.5%
- Cn1c(CNc2ccccc2)nc2ccccc21 — higher, -1.3%
- CCCc1nn2c(N)c(C=C3C=C(Cl)C(=O)C(Cl)=C3)c(=O)nc2s1 — higher, 1.1%
- Cc1ccc(C(=O)c2ccc(Br)c([N+](=O)[O-])c2)cc1C — higher, 6.6%
- O=C(/C=C/c1ccccc1)NCCOC(=O)Nc1ccccc1 — higher, 13.8%
- O=C(O)c1ccc(S(=O)(=O)c2ccc3c(c2)C(=O)N(NC(=O)c2ccco2)C3=O)cc1 — lower, -20.9%
- CC(=O)c1cc(C(=O)CC(=O)Nc2ccc([N+](=O)[O-])cc2)sc1Nc1ccccc1 — higher, 27.1%
- CCOC(=O)C1=C(N)OC2=C(C(=O)CC(C)(C)C2)C1c1cccc(Br)c1 (centres undefined) — higher, 0.3%
- O=S(=O)(c1ccccc1)N1CCN(Cc2cccc(Cl)c2)CC1 — lower, -8.3%
- O=C1NC(=Nc2ccccc2)S/C1=C/c1ccc(O)cc1 — lower, -5.6%
- CC(C)=CC1C(CNC(=O)C(Cl)(Cl)Cl)C1(C)C (centres undefined) — higher, 9.1%
- O=C(/C=C/N1CCCCC1)c1cccs1 — higher, 5.4%
- CC(NC(=O)C(=O)NCC1CCCO1)c1ccccc1 (centres undefined) — higher, 10%
- COc1ccccc1/C=C1\SC(=O)N(CCC(=O)Nc2ccc(S(=O)(=O)Nc3nccs3)cc2)C1=O — higher, 4%
- COc1ccc(OC)c(/C=N\N2CCN(c3ccccc3)CC2)c1 — higher, 1.8%
- COc1cc(/C=N/N2C(=O)C3C(C2=O)C2C=CC3C23CC3)ccc1OCc1ccc([N+](=O)[O-])cc1 (centres undefined) — higher, 5.9%
- O=C1NC(=S)N/C1=C/c1cccc(O)c1 — lower, -6.7%
- CN(C)c1ccc(/C=N/S(=O)(=O)c2cccs2)cc1 — higher, 15.1%
- Cc1cccc(N2CCN(C(=O)c3c(-c4ccccc4Cl)noc3C)CC2)c1C — higher, 6.6%
- Cc1ccc(OCCOCCOc2ccc(/C=C3/SC(=S)N(C)C3=O)cc2)cc1 — higher, 2.8%
- Cc1ccc2nc(NC(=O)c3ccc(F)cc3)sc2c1 — higher, 0.7%
- CC(C(=O)O)n1c(O)c(/C=C2/C=Nc3ccccc32)sc1=S (centres undefined) — lower, -119%
- Cc1ccc2nc(/C(C#N)=C\c3ccc(N4CCCCC4)c([N+](=O)[O-])c3)[nH]c2c1 — higher, 10.4%
- O=C1C2C(c3ccccc3)OC3(C(=O)c4ccccc4C3=O)C2C(=O)N1c1cccc(C(F)(F)F)c1 (centres undefined) — lower, -9.1%
- COc1ccc(-n2cnc3cc(NS(=O)(=O)c4ccc(C)cc4)ccc32)cc1 — higher, -1.2%
- Cc1nnc(NC(=O)CSc2nnc3c4ccccc4n(C(C)C)c3n2)s1 — higher, 12.7%
- CC1CC(N(C(=O)C2CC2)c2ccccc2)c2ccccc2N1C(=O)C1CC1 (centres undefined) — lower, -6.7%
- O=C(O)CCC(=O)c1cccc([N+](=O)[O-])c1 — higher, 1.9%
- CCOC(=O)C(=CNc1ccc(C)c(C)c1)C(=O)OCC — lower, -5.6%
- COc1ccc(OC)c(S(=O)(=O)n2cnc3cc(C)c(C)cc32)c1 — higher, 15.9%
- Cc1cc(C)nc(NC(=O)c2ccc(F)cc2)c1 — lower, -8.1%
- COc1cc([N+](=O)[O-])ccc1NC(=O)c1cc(Cl)ccc1Cl — lower, -10.5%
- COc1ccc(OC)c(N(CC(=O)NC(C)(C)CO)S(=O)(=O)c2ccccc2)c1 — higher, 7.3%
- C=CCn1cc(I)c(=O)n(CC=C)c1=O — higher, 4.3%
- COCCNC(=O)CN(c1cccc(C(F)(F)F)c1)S(C)(=O)=O — higher, 1.1%
- COC(=O)c1cc(NC(=O)c2ccc3ccccc3c2)cc(C(=O)OC)c1 — higher, 11.1%
- S=c1[nH]nc(-c2ccccc2)n1Cc1ccccc1 — lower, -6.7%
- COc1ccc(/C=N/n2c(C)nnc2C)cc1 — lower, -8.8%
- O=C(c1cc2ncc(Br)cn2n1)N1CCCCC1 — lower, -10.7%
- C=CCN1C(=O)/C(=C\c2cc3c(cc2Br)OCO3)SC1=S — higher, 2.1%
- CC(C)(C)NC(=O)CSc1nc(O)cc(=O)n1-c1ccccc1 — lower, -8.4%
- COc1cc(/C=C2\C(=O)NC(=O)N(c3cc(C)cc(C)c3)C2=O)cc(Cl)c1OC — lower, -7.8%
- CC1=C(C(=O)OC(C)C)C(c2ccccc2Br)CC(=O)N1 (centres undefined) — lower, -5.3%
- O=C(O)CCNC(=O)COc1ccccc1 — higher, 8.3%
- COc1ccc(Cl)cc1NC(=O)c1ccc([N+](=O)[O-])cc1 — higher, 15.5%
- CC(=O)NC12CC3CC(C1)C(=O)C(C3)C2 — lower, -10%
- O=C1NN(c2ccccc2)C(=O)/C1=C/c1ccc(-c2ccc(F)cc2)o1 — higher, 8.1%
- O=C1NC(=S)NC(=O)C1=Cc1ccccc1OCCOc1ccccc1 — higher, 14.3%
- Cc1c(NC(=S)NC(=O)c2ccco2)cccc1-c1nc2ccccc2s1 — higher, 11%
- N#C/C(=C\Nc1ccc(S(=O)(=O)Nc2nccs2)cc1)c1nc(-c2ccc(Cl)cc2)cs1 — lower, -6.7%
- COCCOC(=O)c1ccc(NC(=O)c2c(-c3ccccc3Cl)noc2C)cc1 — lower, -5.1%
- CCN(CC)CCSc1nc(O)c(-c2ccccc2)c(=O)n1-c1ccccc1 — lower, -9.6%
- COc1cc(C(=O)NC(NC(=S)Nc2ccc(Br)cc2)C(Cl)(Cl)Cl)cc(OC)c1OC (centres undefined) — higher, 13.8%
- CC1=NN(C(=O)c2cccc(Cl)c2)C(O)(c2ccc(Cl)cc2)C1 (centres undefined) — higher, 10%
- O=C1C(C=NCc2ccc3c(c2)OCO3)=C(O)c2ccccc21 — higher, 134%
- Cc1ccc(OCCCCCCn2ccnc2)c(C)c1 — lower, -11.6%
- COc1ccc(/C=C/C(=O)N(C(C)C)C(C)C)cc1Br — higher, 10.4%
- CC(C)CCNC(=O)c1ccc([N+](=O)[O-])cc1Cl — higher, 8.5%
- CCn1c2ccccc2c2cc(NC(=O)c3ccc(C)c([N+](=O)[O-])c3)ccc21 — higher, 1%
- CC(C)C(=O)N1c2ccccc2NC2=C(C(=O)CC(c3ccccc3)C2)C1c1ccco1 (centres undefined) — lower, -15.4%
- CC1(C)Cc2c(sc3ncnc(NCc4ccccc4)c23)CO1 — lower, -5.4%
- O=C(NCc1ccco1)c1cnn2c(C(F)(F)F)cc(-c3ccccc3)nc12 — lower, -12.1%
- Cc1ccc(C=Nc2ccc(F)cc2)o1 — higher, 4.1%
- CCOC(=O)CSc1nc2c(c(=O)n(C)c(=O)n2C)n1C — higher, 17.9%
- O=C(NC(NC(=S)Nc1ccc(-c2ccccc2)cc1)C(Cl)(Cl)Cl)c1ccccc1Cl (centres undefined) — higher, 8%
- O=C(Nc1ccc(-c2nc3ncccc3o2)cc1)c1cccc(OCc2ccccc2)c1 — higher, 110%
- CCN(CC)S(=O)(=O)c1ccc(Cl)c(C(=O)Nc2ccccc2C(=O)O)c1 — lower, -8.1%
- COc1cc(C(=O)N/N=C/c2c[nH]c3ccccc23)ccc1O — higher, 5.3%
- CCOC(=O)c1c(NC(=O)c2ccc(F)cc2)sc(C(=O)Nc2cc(C(F)(F)F)ccc2Cl)c1C — higher, 13.6%
- CC1=C(C(=O)Nc2ccccc2C)C(c2ccc(F)cc2)NC(=S)N1 (centres undefined) — higher, -3.3%
- O=C(Oc1ccc([N+](=O)[O-])cc1)c1ccc(Br)c(S(=O)(=O)N2CCCCC2)c1 — lower, -10.9%
- COc1ccc(/C=C/C(=O)n2cc(C)nc2C)cc1OC — lower, -5.3%
- Cn1c(=O)c2c(nc(Oc3cccc(C4Nc5ccc6ccccc6c5C5=C4C(=O)CC(C)(C)C5)c3)n2C)n(C)c1=O (centres undefined) — higher, -4.2%
- COCCNCCOc1cccc(Cl)c1Cl — higher, 2.3%
- O=C(Nc1ccccc1C#Cc1ccccc1)c1ccco1 — higher, 2.6%
- CCOC(=O)c1c(N)n(CCO)c2nc3ccccc3nc12 — higher, 18.6%
- Cc1cc(C)cc(NS(=O)(=O)c2ccc3ccccc3c2)c1 — higher, 4.5%
- COc1ccc(CN2CCN(C(=O)c3ccc(F)cc3)CC2)cc1Br — higher, 8.4%
- Cc1c(NC(=O)c2ccc(-c3ccc([N+](=O)[O-])cc3)o2)cccc1-c1nc2ncccc2o1 — higher, 22.9%
- O=C1C(=O)N(c2cccc(Cl)c2)C(c2ccccc2F)/C1=C(\O)c1ccccc1 (centres undefined) — higher, -2.9%
- CCOC(=O)c1c(NC(=O)c2c(C(=O)O)cccc2[N+](=O)[O-])sc(C)c1C — higher, 9%
- C/C(=N\N1CCN(Cc2cccc3ccccc23)CC1)c1cccnc1 — higher, -2.2%
- Cc1cc2nc(-c3cc(N)ccc3Cl)oc2cc1C — higher, -2.2%
- CCN1C(=O)/C(=C/c2c(N3CCN(C)CC3)nc3ccccn3c2=O)SC1=S — lower, -115%
- CC1CCOP(=O)(C(Nc2ccc(C(C)C)cc2)c2ccc(Br)cc2)O1 (centres undefined) — lower, -7.4%
- O=C(Nc1nc2ccc([N+](=O)[O-])cc2s1)c1cccc(Oc2ccccc2)c1 — higher, 14.7%
- COc1ccccc1C(=O)N1CCN(C(=O)c2ccc([N+](=O)[O-])cc2)CC1 — higher, 16.8%
- CCC(=O)N1c2ccccc2NC2=C(C(=O)CC(c3ccco3)C2)C1c1ccco1 (centres undefined) — lower, -10%
- Cc1ccc(-c2nn(-c3ccccc3)cc2/C=C2\SC(N)=NC2=O)cc1 — higher, 9.3%
- CC1CCc2c(sc3nc(-c4ccco4)oc(=O)c23)C1 (centres undefined) — higher, 0.3%
- O=C(NN1C(=O)/C(=C/c2c(Cl)cccc2Cl)SC1=S)c1ccncc1 — higher, 6.2%
- COc1ccc(N=C2NC(=O)/C(=C/c3ccc(Cl)cc3)S2)cc1 — higher, 10.7%
- O=C1NC(=Nc2ccc(O)cc2)S/C1=C\c1ccccc1 — higher, -2.2%
